In patent US20250066451A1 (SWEDISH ORPHAN BIOVITRUM AB PUBL, published 2025):
“And” between values parts separate entries of the source, which are not always exact repeats. Equal entries are not always repeated. Where two headings read alike, the source gives them in different places.

T1: human IL-1R-I on Normal Human Dermal Fibroblasts (NHDF) cells (human, UniProt P14778 18-569)
T1 sequence (looked up): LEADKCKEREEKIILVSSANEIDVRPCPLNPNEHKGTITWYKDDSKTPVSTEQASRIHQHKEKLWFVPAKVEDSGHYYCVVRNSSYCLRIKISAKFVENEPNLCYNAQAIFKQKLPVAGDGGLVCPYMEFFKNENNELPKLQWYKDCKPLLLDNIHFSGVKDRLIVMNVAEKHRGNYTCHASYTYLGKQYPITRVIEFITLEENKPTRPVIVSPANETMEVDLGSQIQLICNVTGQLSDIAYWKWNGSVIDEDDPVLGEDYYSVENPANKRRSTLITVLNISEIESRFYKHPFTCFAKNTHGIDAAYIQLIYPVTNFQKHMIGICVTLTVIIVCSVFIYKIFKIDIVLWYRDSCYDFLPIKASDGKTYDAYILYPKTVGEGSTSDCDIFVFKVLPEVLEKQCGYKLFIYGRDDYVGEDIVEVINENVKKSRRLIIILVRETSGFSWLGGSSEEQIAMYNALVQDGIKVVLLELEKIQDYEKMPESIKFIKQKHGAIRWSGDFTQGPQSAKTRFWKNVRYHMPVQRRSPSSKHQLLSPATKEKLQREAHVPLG

T2: IL-1R-I on cells (TF-1 cells, NHDF cells, human whole blood) (human, UniProt P14778 18-569)
T2 sequence (looked up): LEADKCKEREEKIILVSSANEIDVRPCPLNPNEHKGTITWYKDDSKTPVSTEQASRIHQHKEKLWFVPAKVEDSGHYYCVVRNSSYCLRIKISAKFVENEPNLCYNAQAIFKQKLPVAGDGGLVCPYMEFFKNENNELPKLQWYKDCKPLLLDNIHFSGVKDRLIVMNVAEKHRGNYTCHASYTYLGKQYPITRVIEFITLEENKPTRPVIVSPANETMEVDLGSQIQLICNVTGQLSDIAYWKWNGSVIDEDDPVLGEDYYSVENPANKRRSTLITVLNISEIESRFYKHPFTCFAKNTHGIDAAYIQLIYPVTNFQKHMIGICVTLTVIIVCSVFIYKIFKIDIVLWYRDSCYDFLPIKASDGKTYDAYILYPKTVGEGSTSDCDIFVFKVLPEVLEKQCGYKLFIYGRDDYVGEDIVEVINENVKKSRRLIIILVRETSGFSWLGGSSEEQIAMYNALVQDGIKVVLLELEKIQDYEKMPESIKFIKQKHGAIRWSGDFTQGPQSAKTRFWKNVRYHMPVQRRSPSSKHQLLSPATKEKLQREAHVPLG

T3: human IL-1R-I (R&D systems cat. no. 269-1R/CF) (human, UniProt P14778 18-332, limits assumed)
T3 construct: Soluble bought protein used as analyte in BLI; also called hIL-1R-I; hIL-1RI
T3 sequence (looked up): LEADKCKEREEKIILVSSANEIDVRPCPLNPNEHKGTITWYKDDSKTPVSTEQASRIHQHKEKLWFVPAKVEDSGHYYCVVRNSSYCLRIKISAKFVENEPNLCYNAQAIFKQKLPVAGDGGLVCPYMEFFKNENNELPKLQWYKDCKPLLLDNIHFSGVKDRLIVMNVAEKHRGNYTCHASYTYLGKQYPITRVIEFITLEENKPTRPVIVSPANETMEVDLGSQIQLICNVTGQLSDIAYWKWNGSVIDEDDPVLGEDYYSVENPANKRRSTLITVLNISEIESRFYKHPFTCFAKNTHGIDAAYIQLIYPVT

T4: cynomolgus IL-1R-I-His6 (cynomolgus, UniProt P14778 19-332 (human entry), limits assumed)
T4 construct: expressed in FreeStyle 293-F cells and IMAC purified; also called cIL-1R-I-His6
T4 chain: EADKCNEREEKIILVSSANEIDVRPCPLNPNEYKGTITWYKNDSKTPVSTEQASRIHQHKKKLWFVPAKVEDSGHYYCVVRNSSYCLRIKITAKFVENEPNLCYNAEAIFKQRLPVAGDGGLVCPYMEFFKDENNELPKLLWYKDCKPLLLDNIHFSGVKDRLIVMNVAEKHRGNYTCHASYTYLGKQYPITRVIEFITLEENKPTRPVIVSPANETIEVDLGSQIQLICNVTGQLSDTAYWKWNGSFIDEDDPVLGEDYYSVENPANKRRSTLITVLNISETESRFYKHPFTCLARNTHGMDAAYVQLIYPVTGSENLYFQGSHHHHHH


Key:
[1] = molecular target: T1, human IL-1R-I on Normal Human Dermal …; assay: cell-based or functional assay
[2] = molecular target: T2, IL-1R-I on cells (TF-1 cells, NHDF …); assay: cell-based or functional assay
[3] = molecular target: T1, human IL-1R-I on Normal Human Dermal …; assay: cell-based or functional assay; remark: listed apart in the source
[4] = molecular target: T3, human IL-1R-I (R&D systems cat. no. …); assay: BLI (OctetRED96), Z-Fc loaded on Protein A sensor, IL-1R-I as analyte, 1:1 Langmuir global fit
cynomolgus IL-1R-I-His6 = molecular target: T4, cynomolgus IL-1R-I-His6; assay: as above

| Binder | IC50 (pM), inhibition of IL-1B induced IL-6 release in NHDF cells [1] [pM] | median IC50, IL-1B induced IL-6 release in human whole blood [2] [nM] | IC50 (pM), inhibition of IL-1B induced IL-6 release in NHDF cells [3] | Kd [4] [nM] | koff [4] [s⁻¹] | kon [4] [M⁻¹ s⁻¹] | Kd (cynomolgus IL-1R-I-His6) [nM] | koff (cynomolgus IL-1R-I-His6) [s⁻¹] | kon (cynomolgus IL-1R-I-His6) [M⁻¹ s⁻¹] |
| --- | --- | --- | --- | --- | --- | --- | --- | --- | --- |
| PSI0656 (Z18754[S228P]-IgG4 Fc) (Fc fusion) AEAKYAKEVEEIQMEIFRLPNLTRRQYTAFIRKLLDDPSQSSELLSEAKKLSESQAPKASGGGGSGGGGS[sequence of human IgG4 Fc with S228P (EU numbers) omitted] | 8.4 |  |  |  |  |  |  |  |  |
| PSI0536: Z18754[V1A; D2E; N52S; D53E]-AS(G4S)2-IgG1 Fc (Fc fusion) AEAKYAKEVEEIQMEIFRLPNLTRRQYTAFIRKLLDDPSQSSELLSEAKKLSESQAPKASGGGGSGGGGS[sequence of human IgG1 Fc omitted] |  | 0.32 |  |  |  |  |  |  |  |
| PSI0536 (Z18754[V1A; D2E; N52S; D53E]-AS(G4S)2-IgG1 Fc) (Fc fusion, expressed in E. coli) AEAKYAKEVEEIQMEIFRLPNLTRRQYTAFIRKLLDDPSQSSELLSEAKKLSESQAPKASGGGGSGGGGS[sequence of human IgG1 Fc omitted] |  |  | 66 pM and 45 pM | 0.75 | 0.000679 | 899000 | 14 | 0.0234 | 1.7e+06 |
| PSI0538 (Z18874[V1A; D2E; N52S; D53E]-AS(G4S)2-IgG1 Fc) (Fc fusion) AEAKYAKELEAIQMEIFHLPNLTRRQYTAFIRKLLDDPSQSSELLSEAKKLSESQAPKASGGGGSGGGGS[sequence of human IgG1 Fc omitted] |  |  | 87 pM and 70 pM |  |  |  |  |  |  |
| PSI0653 (Z18754[N297A]-IgG1 Fc) (Fc fusion) AEAKYAKEVEEIQMEIFRLPNLTRRQYTAFIRKLLDDPSQSSELLSEAKKLSESQAPKASGGGGSGGGGS[sequence of human IgG1 Fc with changes omitted] | 4.3 |  |  |  |  |  |  |  |  |

Results, then the binder that gave them:

| IC50 (pM), inhibition of IL-1B induced IL-6 release in NHDF cells [1] [pM] | median IC50, IL-1B induced IL-6 release in human whole blood [2] [nM] | IC50 (pM), inhibition of IL-1B induced IL-6 release in NHDF cells [3] | Kd [4] [nM] | koff [4] [s⁻¹] | kon [4] [M⁻¹ s⁻¹] | Kd (cynomolgus IL-1R-I-His6) [nM] | koff (cynomolgus IL-1R-I-His6) [s⁻¹] | kon (cynomolgus IL-1R-I-His6) [M⁻¹ s⁻¹] | Binder |
| --- | --- | --- | --- | --- | --- | --- | --- | --- | --- |
|  |  | 240 pM and 110 pM |  |  |  |  |  |  | PSI0539 (Z18760[V1A; D2E; N52S; D53E]-AS(G4S)2-IgG1 Fc) (Fc fusion) AEAKYAKETEAVQMEIFALPNLTRRQYTAFIRKLLDDPSQSSELLSEAKKLSESQAPKASGGGGSGGGGS[sequence of human IgG1 Fc omitted] |
|  |  | 260 pM and 200 pM | 1.2 | 0.00102 | 841000 | 31 | 0.0548 | 1.78e+06 | PSI0537 (Z19151[V1A; D2E; N52S; D53E]-AS(G4S)2-IgG1 Fc) (Fc fusion, expressed in E. coli) AEAKYAKEVEDIQLEIFALPNLTRRQYTAFIRKLLDDPSQSSELLSEAKKLSESQAPKASGGGGSGGGGS[sequence of human IgG1 Fc omitted] |
|  |  | 80 pM and 50 pM | 0.72 | 0.000421 | 583000 | 11 | 0.0166 | 1.49e+06 | PSI0535 (Z18846[V1A; D2E; N52S; D53E]-AS(G4S)2-IgG1 Fc) (Fc fusion, expressed in E. coli) AEAKYAKEIEEIQMEIFHLPNLTRRQYTAFIRKLLDDPSQSSELLSEAKKLSESQAPKASGGGGSGGGGS[sequence of human IgG1 Fc omitted] |
|  |  | 140 pM and 110 pM | 1.6 | 0.000642 | 404000 | 28 | 0.0299 | 1.08e+06 | PSI0534 (Z18831[V1A; D2E; N52S; D53E]-AS(G4S)2-IgG1 Fc) (Fc fusion, expressed in E. coli) AEAKYAKEIEEVQMEIFYLPNLTRRQYTAFIRKLLDDPSQSSELLSEAKKLSESQAPKASGGGGSGGGGS[sequence of human IgG1 Fc omitted] |
|  | 1.25 |  |  |  |  |  |  |  | PSI0537: Z19151[V1A; D2E; N52S; D53E]-AS(G4S)2-IgG1 Fc (Fc fusion) AEAKYAKEVEDIQLEIFALPNLTRRQYTAFIRKLLDDPSQSSELLSEAKKLSESQAPKASGGGGSGGGGS[sequence of human IgG1 Fc omitted] |
